Molecules are shown by their SMILES. Screen size: about 310,000 compounds; about 2,200 (0.71%) showed an effect of 50% or more. The effect is printed as a negative number. This is one part of the list.

human ether-à-go-go-related gene (hERG) potassium channel, sequence (Q12809 whole entry, looked up): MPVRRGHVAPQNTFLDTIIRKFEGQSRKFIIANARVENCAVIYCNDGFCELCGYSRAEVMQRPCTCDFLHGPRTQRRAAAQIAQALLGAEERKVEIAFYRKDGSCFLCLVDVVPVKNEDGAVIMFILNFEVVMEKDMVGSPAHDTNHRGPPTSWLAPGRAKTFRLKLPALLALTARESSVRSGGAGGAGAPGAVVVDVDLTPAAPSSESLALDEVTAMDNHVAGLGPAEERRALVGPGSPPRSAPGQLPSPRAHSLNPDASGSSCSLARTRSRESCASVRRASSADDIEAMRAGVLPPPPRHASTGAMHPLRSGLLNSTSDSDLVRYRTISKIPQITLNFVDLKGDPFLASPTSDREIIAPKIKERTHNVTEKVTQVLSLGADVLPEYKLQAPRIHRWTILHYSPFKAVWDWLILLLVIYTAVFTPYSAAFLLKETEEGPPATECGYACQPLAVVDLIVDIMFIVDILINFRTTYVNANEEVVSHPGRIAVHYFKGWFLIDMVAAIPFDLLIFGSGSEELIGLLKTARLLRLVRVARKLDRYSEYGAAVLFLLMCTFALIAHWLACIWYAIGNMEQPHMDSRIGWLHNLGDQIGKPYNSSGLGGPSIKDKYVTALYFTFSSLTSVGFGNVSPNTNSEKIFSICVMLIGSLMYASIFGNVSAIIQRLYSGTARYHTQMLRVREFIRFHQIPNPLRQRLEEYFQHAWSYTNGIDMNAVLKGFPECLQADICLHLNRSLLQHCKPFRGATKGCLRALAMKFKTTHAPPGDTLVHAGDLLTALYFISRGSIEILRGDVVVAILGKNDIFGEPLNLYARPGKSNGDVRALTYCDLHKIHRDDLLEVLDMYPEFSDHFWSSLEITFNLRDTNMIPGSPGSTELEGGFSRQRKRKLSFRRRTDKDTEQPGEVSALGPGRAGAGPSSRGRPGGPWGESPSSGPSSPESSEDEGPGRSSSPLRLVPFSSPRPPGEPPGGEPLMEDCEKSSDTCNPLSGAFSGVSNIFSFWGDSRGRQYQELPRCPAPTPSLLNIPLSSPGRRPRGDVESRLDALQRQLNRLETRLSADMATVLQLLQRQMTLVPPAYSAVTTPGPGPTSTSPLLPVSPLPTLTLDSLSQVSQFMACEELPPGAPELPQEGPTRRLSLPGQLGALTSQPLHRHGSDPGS

The test concerns the target human ether-à-go-go-related gene (hERG) potassium channel (human, UniProt Q12809). Briefly: primary screen, population patch clamp on CHO cells stably expressing hERG.
Turning to `O=C1OC(c2ccccc2)=C/C1=C/N1CCCCC1`, the “hERG current change (%, negative = inhibition) at 1uM” value was found to be 5.76%. For the molecule `CCC(C)NC(=O)CSc1nnc(-c2cc(-c3ccc(C)cc3)nc3ccccc23)n1N` (centres unmarked), the “hERG current change (%, negative = inhibition) at 1uM” value worked out at 12.4%. The figure for `O=C(Nc1cccc(C(F)(F)F)c1)C1C2CC3OC(=O)C1C3C2` (centres unmarked) is 0.0006%; for `CCN1CCN(CCn2c(=S)[nH]c3cc4c(cc3c2=O)OCO4)CC1` it is 8.76%.

Turning to `Cc1cccc(C(=O)OCC(=O)c2c(C)[nH]c3ccccc23)c1O`, the “hERG current change (%, negative = inhibition) at 1uM” value amounted to 13.6%. As for `C=CCn1c(SCc2ccc(F)cc2)nc2c1c(=O)[nH]c(=O)n2C`, the figure is 10.9%; as for `O=C(CSc1ccc2nnc(CCNC(=O)c3ccc(F)cc3)n2n1)NCC1CCCO1` (centres unmarked), 8.61%. Take `CCOC(=O)C[C@H]1c2cc(C(F)(F)F)ccc2S(=O)(=O)N1C(C)C`: the “hERG current change (%, negative = inhibition) at 1uM” value came out at 7.53%. As for `COc1ccc(S(=O)(=O)Nc2c(NC3CCCCC3)c3ccccc3oc2=O)cc1OC`, the figure is 12.4%. The figure for `O=C1NC(c2ccccc2O)Nc2ccccc21` (centres unmarked) is 14.6%. As for `Cc1ccc(S(=O)(=O)N2CCOCC2)cc1NC(=O)COC(=O)CNC(=O)c1ccc(Cl)cc1Cl`, the “hERG current change (%, negative = inhibition) at 1uM” value is listed as 11.8%. The figure for `O=C(Nc1cc(Cl)ncn1)c1ccccc1` is 7.76%; for `CCn1c(=O)c(C(=O)Nc2ncccc2O)c(O)c2ccccc21` it is 21%.

As to `Cc1nn(C)c(C)c1CCC(=O)N1CCCC(Nc2ccc(C(C)C)cc2)C1` (centres unmarked), the “hERG current change (%, negative = inhibition) at 1uM” value stood at 14%. `CC(OC(=O)c1nsc(Cl)c1Cl)C(=O)NCc1cccs1` (centres unmarked): the “hERG current change (%, negative = inhibition) at 1uM” value stood at 13%. The figure for `O=C(CC1SC(=O)N(Cc2ccccc2Cl)C1=O)Nc1nccs1` (centres unmarked) is 6.06%; for `CCOc1cc(-c2nnc(-c3ccco3)o2)cc(OCC)c1OCC` it is 8.69%; for `Cn1cc([N+](=O)[O-])c(C(=O)Nc2ccc(C3CCCCC3)cc2)n1` it is 9.65%. The figure for `Cc1ccc(OCCn2cc(/C=N/NC(=O)c3ccncc3)c3ccccc32)cc1` is -0.0993%; for `Cc1ccc(/C=C/C(=O)O)cc1S(=O)(=O)N1CCCCC1` it is 7.44%; for `COc1cc(OC)c(OC)cc1CNCc1ccc2c(c1)OCO2` it is 12.3%.

Consider `C=C(C)c1ccccc1NC(=O)CCN1C(=O)c2ccccc2S1(=O)=O`, for which the “hERG current change (%, negative = inhibition) at 1uM” value is 16.5%.

`COc1cccc2cc(CC(=O)c3ccccc3)c(=O)oc12`: the “hERG current change (%, negative = inhibition) at 1uM” value came out at 11.2%.

As to `COc1cc2[nH]c(=O)n(Cc3ccc(C(=O)NCC4CCCO4)cc3)c(=O)c2cc1OC` (centres unmarked), the “hERG current change (%, negative = inhibition) at 1uM” value came out at 5.93%. As to `COc1cc(C2C(C#N)=C(N)Oc3cc(C)oc(=O)c32)cc2c1OCO2` (centres unmarked), the “hERG current change (%, negative = inhibition) at 1uM” value is listed as 6.57%. As for `CCN(CC)c1ccc(NC(=O)CN2CCN(CC(=O)Nc3ccccc3OC)CC2)cc1`, the figure is -0.407%; as for `Cc1cccc(/C=N/NC(=O)c2cc(-c3cccnc3)nc3ccccc23)c1`, 5.24%. On to `C=CCOC(=O)C(C#N)c1nc2ccccc2nc1N1CCN(Cc2ccc3c(c2)OCO3)CC1` (centres unmarked), for which the “hERG current change (%, negative = inhibition) at 1uM” value was determined as 3.58%.

Regarding `CCCCCOc1ccc(CN2CCOCC2)cc1Cl.Cl`, the “hERG current change (%, negative = inhibition) at 1uM” value was 7.35%. As for `CCN1CCN(S(=O)(=O)c2ccc(C(C)(C)C)cc2)CC1`, the figure is 13%. As for `CC1=C/C(=C\c2ccc(Br)o2)C(=O)O1`, the figure is 12.5%; as for `O=[N+]([O-])c1cccc(Oc2cnccn2)c1`, 14.5%.

Take `O=C(CN1C(=O)COc2ccccc21)Nc1ccc(F)cc1`: the “hERG current change (%, negative = inhibition) at 1uM” value was 11.2%. As to `O=C(C1CCCO1)N(c1ccc(F)cc1)C1C=CS(=O)(=O)C1` (centres unmarked), the “hERG current change (%, negative = inhibition) at 1uM” value came out at 15.2%. With `O=C1CSc2ccc(S(=O)(=O)CCC(=O)NC3CCCCC3)cc2N1`, the “hERG current change (%, negative = inhibition) at 1uM” value was 15.7%. The figure for `Cc1ccc2nc(SC(C)C(=O)NCc3ccco3)[nH]c2c1` (centres unmarked) is 5.91%.

For the molecule `Cc1ccc(CS(=O)(=O)CCC(=O)NCc2ccccc2Cl)cc1`, the “hERG current change (%, negative = inhibition) at 1uM” value is 10.3%. The figure for `COc1ccc(NC(=O)CN2C(=O)C(C)Oc3ccccc32)c(OC)c1` (centres unmarked) is 7.11%; for `Nn1c(Cc2cccc3ccccc23)nnc1SC1CCOC1=O` (centres unmarked) it is 13.3%.

With `CCOc1ccccc1NC(=O)CSc1nnc(-c2cnccn2)n1C`, the “hERG current change (%, negative = inhibition) at 1uM” value is -0.161%. `COc1ccccc1N(CC(=O)Nc1ccccc1C(=O)NCC(C)C)S(C)(=O)=O`: the “hERG current change (%, negative = inhibition) at 1uM” value is given as -8.6%. The figure for `O=C(O)CSc1ncnc2sc3c(c12)CCCC3` is 3.75%. Consider `CC(=O)NC(C)c1nc2ccccc2n1CC(=O)N1C(C)CCCC1C` (centres unmarked), for which the “hERG current change (%, negative = inhibition) at 1uM” value was determined as 12.1%. As for `CCOc1ccc(CNC(=S)Nc2ccccc2)cc1Cl`, the figure is 14.7%; as for `CC(=O)Nc1nc(=S)ss1`, 8.23%. The figure for `O=C(Nc1cc(SCC(O)CO)cc([N+](=O)[O-])c1)c1ccc(-n2cnnn2)cc1` (centres unmarked) is 17.4%; for `CC(OC(=O)CN1C(=O)NC2(CCCC2)C1=O)C(=O)Nc1cccc(Cl)c1` (centres unmarked) it is -0.725%. As for `COc1cccc(C(=O)Cn2c(N3CCCCC3)nc3c2c(=O)n(C)c(=O)n3C)c1`, the figure is 12.2%; as for `Cc1ccc2nc(-c3ccncc3)[nH]c2c1`, 16.2%. For `COCCn1nnnc1C(c1ccc(OC)c(OC)c1)N1CCc2ccccc21` (centres unmarked), the “hERG current change (%, negative = inhibition) at 1uM” value is recorded as 1.88%.

As to `O=C(C1CN(S(=O)(=O)c2ccccc2)CCN1S(=O)(=O)c1ccccc1)N1CCCCCC1` (centres unmarked), the “hERG current change (%, negative = inhibition) at 1uM” value was 8.26%. As for `CCCNC(=O)CN1CCN(c2cc3ccccc3c(Cl)n2)CC1`, the figure is -4.09%; as for `O=C(CC(c1ccccc1)c1ccccc1O)NCc1ccccc1Cl` (centres unmarked), 9%. The figure for `COc1cccc(N2CCN(CC(=O)Nc3nc(C)c(C(=O)N(C)C)s3)CC2)c1` is 15%. On to `CCCCN1C(=O)/C(=C(/C#N)C(N)=O)c2ccccc21`, for which the “hERG current change (%, negative = inhibition) at 1uM” value is reported as 31.5%.

On to `CC(=O)NC(CC(=O)OCC(=O)Nc1ccc2c(c1)OCO2)c1ccccc1` (centres unmarked), for which the “hERG current change (%, negative = inhibition) at 1uM” value amounted to 15.2%.

On to `Cc1onc(-c2ccccc2Cl)c1C(=O)Nc1cccnc1`, for which the “hERG current change (%, negative = inhibition) at 1uM” value stood at 6.71%. As for `COc1ccc(N=C2S/C(=C\c3cccs3)C(=O)N2CC(C)C)cc1`, the figure is -1.97%. As for `O=C(N/N=C\c1ccc(OCC(=O)N2CCCC2)cc1)C(=O)Nc1ccccc1F`, the figure is -10.6%; as for `C/C(=N/NC(=O)CNC(=O)c1ccc2c(c1)OCO2)c1ccc2c(c1)CCCC2`, 7.14%; as for `COc1ccc(NC(=S)Nc2ccc(OC(F)F)cc2)cn1`, -0.51%. On to `CC(=O)Nc1ccc(SC[C@H](Cc2ccccc2)N2CCN(CCc3ccccc3)CCC2=O)cc1`, for which the “hERG current change (%, negative = inhibition) at 1uM” value is recorded as 4.37%.

On to `COC(=O)CNC(=O)C1CCN(S(=O)(=O)c2cccc3nsnc23)CC1`, for which the “hERG current change (%, negative = inhibition) at 1uM” value stood at 17.2%.

Turning to `N#Cc1nc(COc2ccc(F)cc2)oc1N1CCN(Cc2ccccc2)CC1`, the “hERG current change (%, negative = inhibition) at 1uM” value was -51%. The figure for `Cc1c(C(=O)NNc2c(Cl)cccc2Cl)n(C)oc1=O` is 12.6%; for `Cc1nccc2c1[nH]c1ccc(Br)cc12` it is 10.4%; for `COCCNCC(O)CON=C1c2ccccc2-c2ccccc21` (centres unmarked) it is 4.17%. Turning to `COc1ccc(NC(=O)COc2ccccc2)cc1Cl`, the “hERG current change (%, negative = inhibition) at 1uM” value is recorded as 13.6%.

`C[C@H](NC(=O)NCc1ccc(F)cc1)C(=O)O`: the “hERG current change (%, negative = inhibition) at 1uM” value was 6.79%. As for `CC12CCC(C(=O)N(NC(=O)c3ccccc3O)C1=O)C2(C)C` (centres unmarked), the figure is 11.1%.

As for `CC12COC3(C(=O)Nc4ccccc4)CC1CCC32C` (centres unmarked), the “hERG current change (%, negative = inhibition) at 1uM” value was determined as 16.2%. The figure for `CN(C)c1ccc(/C=C/C(=O)c2ccccc2O)cc1` is 16.7%. The figure for `Cc1ccc(CCNC(=O)C2CCCN(S(=O)(=O)c3c(C)noc3/C=C/N(C)C)C2)cc1` (centres unmarked) is 10.3%; for `Cc1ccc(-c2nc(C=Nc3cccc(C)c3)c(O)o2)cc1` it is 23.4%; for `CCC1CCc2sc(C(=O)OCC(=O)N(CCOC)c3c(N)n(Cc4ccccc4)c(=O)[nH]c3=O)cc2C1` (centres unmarked) it is -2.31%. Take `CN(CCCC1CCCC1)C(=O)CC1C(=O)NCCN1Cc1cccc(F)c1F` (centres unmarked): the “hERG current change (%, negative = inhibition) at 1uM” value is recorded as 3.4%. As for `ON1C(c2ccc(Cl)cc2Cl)N(O)[C@H]2CCCC[C@H]21` (some centres unmarked), the “hERG current change (%, negative = inhibition) at 1uM” value is 10.2%.

With `Cc1ccc(S(=O)(=O)N(C)C)cc1NC(=O)COC(=O)c1sc2cc(Cl)ccc2c1Cl`, the “hERG current change (%, negative = inhibition) at 1uM” value came out at 10.1%. As for `C=C(C)CN(CC)C(=O)CSc1nc(O)cc(=O)n1C1CCCC1`, the figure is 20.7%; as for `O=S(=O)(c1ccccc1)c1nc(-c2ccco2)oc1NCCCN1CCOCC1`, 5.16%.

With `COCCNC(=O)/C(C#N)=C/c1ccc(O)c([N+](=O)[O-])c1`, the “hERG current change (%, negative = inhibition) at 1uM” value is reported as 11.5%. As for `CN(C)c1nccc(Nc2ccccc2)c1C#N`, the figure is 14.1%; as for `CC(=O)c1c(C)oc2ccc(N(C(C)=O)S(=O)(=O)c3cccc4cccnc34)cc12`, 10.7%.

For `O=S(=O)(c1ccc(Br)cc1)n1ccc2ccccc21`, the “hERG current change (%, negative = inhibition) at 1uM” value is 12.5%.

Regarding `O=C(COC(=O)c1ccc2c(c1)S(=O)(=O)N=C1CCCCCN12)NCc1cccs1`, the “hERG current change (%, negative = inhibition) at 1uM” value turned out to be 9.64%. As for `COc1ccc2nc(NC(=O)CCc3nc(C4=CCN(C)CC4)no3)sc2c1`, the “hERG current change (%, negative = inhibition) at 1uM” value turned out to be 6.55%.

As to `CC(=O)N/C(=C/c1ccc(OS(=O)(=O)c2ccc(C)cc2)cc1)C(=O)NCCO`, the “hERG current change (%, negative = inhibition) at 1uM” value is 0.32%. The figure for `O=C(NNS(=O)(=O)c1ccc(F)cc1)c1cnn(-c2ccccc2)c1C(F)(F)F` is 1.13%. In the case of `CCOC(=O)c1nnn(CC(=O)Nc2cccc(Cl)c2C)c1C(=O)OCC`, the “hERG current change (%, negative = inhibition) at 1uM” value is on record as 8.44%.

(Values after paper PMC4336329 (PLoS ONE, 2015).)
